Measurements reported in patent US20220213140A1 (Chugai, published 2022).

Target: T1, Antibody A
T1 construct: also called pI-modified antibody
Assay: BLI (BLItz), biotinylated ligand monomer on sensor, antibody in solution

T1 sequence (constant, as listed by the source limits assumed): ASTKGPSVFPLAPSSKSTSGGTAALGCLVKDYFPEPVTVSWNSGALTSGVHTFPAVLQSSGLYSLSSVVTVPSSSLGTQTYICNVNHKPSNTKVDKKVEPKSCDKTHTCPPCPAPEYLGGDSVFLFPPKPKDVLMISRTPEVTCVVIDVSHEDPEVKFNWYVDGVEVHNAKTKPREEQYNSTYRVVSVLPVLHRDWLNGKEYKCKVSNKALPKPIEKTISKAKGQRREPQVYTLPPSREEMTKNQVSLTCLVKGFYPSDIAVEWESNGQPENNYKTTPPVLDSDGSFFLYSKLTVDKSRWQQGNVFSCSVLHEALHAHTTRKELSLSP

Binder | Kd
R2 (designed binder, labeled with Biotin (Lys:Biotin = 12:1)) ADNAFNTEQQNAFYEILHLPNLTEEQRNAFIQSLRDDPSKSKKILKEAKKLNKAQAPK | 539 nM
PN93 (designed binder, labeled with Biotin (Lys:Biotin = 12:1)) ADNAFNREQQNAFYEILHLPNLTEEQRNAFIQSLRDDPSKSKKILKEAKKLNKAQAPK | 322 nM
PN127 (designed binder, labeled with Biotin (Lys:Biotin = 12:1)) ADNAFNQEQQNAFYEILHLPNLTEEQRNAFIQSLRDDPSKSKKILKEAKKLNKAQAPK | 265 nM
PN128 (designed binder, labeled with Biotin (Lys:Biotin = 12:1)) ADNAFNEEQQNAFYEILHLPNLTEEQRNAFIQSLRDDPSKSKKILKEAKKLNKAQAPK | 176000 nM
PN129 (designed binder, labeled with Biotin (Lys:Biotin = 12:1)) ADNAFNLEQQNAFYEILHLPNLTEEQRNAFIQSLRDDPSKSKKILKEAKKLNKAQAPK | 359 nM
PN130 (designed binder, labeled with Biotin (Lys:Biotin = 12:1)) ADNAFNIEQQNAFYEILHLPNLTEEQRNAFIQSLRDDPSKSKKILKEAKKLNKAQAPK | 310 nM
PN131 (designed binder, labeled with Biotin (Lys:Biotin = 12:1)) ADNAFNHEQQNAFYEILHLPNLTEEQRNAFIQSLRDDPSKSKKILKEAKKLNKAQAPK | 314 nM
PN132 (designed binder, labeled with Biotin (Lys:Biotin = 12:1)) ADNAFNVEQQNAFYEILHLPNLTEEQRNAFIQSLRDDPSKSKKILKEAKKLNKAQAPK | 309 nM
PN133 (designed binder, labeled with Biotin (Lys:Biotin = 12:1)) ADNAFNTEQQNAFYEILHLPNLTEEQRNAFIQSLHDDPSKSKKILKEAKKLNKAQAPK | 80100 nM
PN190 (designed binder, labeled with Biotin (Lys:Biotin = 12:1)) ADNAFNTEQQNAFYEILHLPNLTEEQRNAFIQSLADDPSKSKKILKEAKKLNKAQAPK | 91300 nM
PN194 (designed binder, labeled with Biotin (Lys:Biotin = 12:1)) ADNAFNTEQQNAFYEILHLPNLTEEQRNAFIQSLEDDPSKSKKILKEAKKLNKAQAPK | 257000 nM
PN195 (designed binder, labeled with Biotin (Lys:Biotin = 12:1)) ADNAFNTEQQNAFYEILHLPNLTEEQRNAFIQSLTDDPSKSKKILKEAKKLNKAQAPK | 171000 nM
PN196 (designed binder, labeled with Biotin (Lys:Biotin = 12:1)) ADNAFNTEQQNAFYEILHLPNLTEEQRNAFIQSLVDDPSKSKKILKEAKKLNKAQAPK | 1100 nM
PN197 (designed binder, labeled with Biotin (Lys:Biotin = 12:1)) ADNAFNTEQQNAFYEILHLPNLTEEQRNAFIQSLLDDPSKSKKILKEAKKLNKAQAPK | 120000 nM
PN2011 (designed binder, labeled with Biotin (Lys:Biotin = 12:1)) ADNAFNYEQQNAFYEILHLPNLTEEQRNAFIQSLRDDPSKSKKILKEAKKLNKAQAPK | 102 nM
PN2012 (designed binder, labeled with Biotin (Lys:Biotin = 12:1)) ADNAFNFEQQNAFYEILHLPNLTEEQRNAFIQSLRDDPSKSKKILKEAKKLNKAQAPK | 152 nM
PN2078 (designed binder, labeled with Biotin (Lys:Biotin = 12:1)) ADNAFNAEQQNAFYEILHLPNLTEEQRNAFIQSLRDDPSKSKKILKEAKKLNKAQAPK | 258 nM
PN2082 (designed binder, labeled with Biotin (Lys:Biotin = 12:1)) ADNAFNPEQQNAFYEILHLPNLTEEQRNAFIQSLRDDPSKSKKILKEAKKLNKAQAPK | 1630 nM
